Laboratory results reported in PubChem BioAssay AID488969 (Vanderbilt High Throughput Screening Facility, 2010).
In all, about 110,000 compounds were measured (“z-score”: median about -0.1, highest 2% from about 2 on). This is one part of the list. Active and inactive are the calls of the source.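 How the source made its calls: active means z-score in the third read window above 3 or below -3; inactive means the rest.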

What follows are compounds tested against Metabotropic glutamate receptor 8 (Rattus norvegicus) (UniProt P70579) (assay: mGluR8 Gi/Go-coupled signaling modulation – cell-based, rat, thallium flux, HTS, primary screen (AID 488969)). Details: HEK293 rat mGluR8, GIRK (G protein-gated inwardly rectifying potassium channel) thallium flux, FluoZin2; at 10 µM; stronger effect = higher value; submaximal glutamate (EC20) added with thallium.
Sequence of UniProt P70579 (P70579 whole entry, looked up): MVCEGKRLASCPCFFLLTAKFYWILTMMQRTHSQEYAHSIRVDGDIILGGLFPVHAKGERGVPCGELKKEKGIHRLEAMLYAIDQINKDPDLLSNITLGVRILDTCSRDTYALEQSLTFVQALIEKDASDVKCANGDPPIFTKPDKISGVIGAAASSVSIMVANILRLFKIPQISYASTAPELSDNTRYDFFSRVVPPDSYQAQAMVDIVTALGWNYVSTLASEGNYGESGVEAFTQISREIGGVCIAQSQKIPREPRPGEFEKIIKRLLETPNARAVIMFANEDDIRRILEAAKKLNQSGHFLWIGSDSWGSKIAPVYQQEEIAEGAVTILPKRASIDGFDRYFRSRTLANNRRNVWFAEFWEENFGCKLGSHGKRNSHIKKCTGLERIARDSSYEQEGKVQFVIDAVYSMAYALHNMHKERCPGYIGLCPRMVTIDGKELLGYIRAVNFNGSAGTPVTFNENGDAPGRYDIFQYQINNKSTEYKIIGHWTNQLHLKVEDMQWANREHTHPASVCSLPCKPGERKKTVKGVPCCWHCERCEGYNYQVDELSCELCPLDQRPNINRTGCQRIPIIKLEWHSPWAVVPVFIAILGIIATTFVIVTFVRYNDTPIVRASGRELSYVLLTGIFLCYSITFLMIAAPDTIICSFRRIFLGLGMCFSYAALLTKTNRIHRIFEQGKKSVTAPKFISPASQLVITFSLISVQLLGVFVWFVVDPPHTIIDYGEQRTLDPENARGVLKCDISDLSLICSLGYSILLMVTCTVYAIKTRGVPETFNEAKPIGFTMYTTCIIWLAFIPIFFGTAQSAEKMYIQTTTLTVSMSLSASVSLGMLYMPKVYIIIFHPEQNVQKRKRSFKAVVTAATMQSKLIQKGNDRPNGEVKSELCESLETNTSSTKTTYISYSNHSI
CCOc1ccc(/C=C/C(=O)Nc2ccc(C(N)=O)cc2)cc1OC was tested, and the z-score was -0.0334. COc1ccc(C(=O)Nc2ccc3oc(Cc4ccc(Cl)cc4)nc3c2)cc1OC gave a z-score of -0.247. CCN(C(=O)Cc1ccc(Br)cc1)C1CCCCC1 was tested, and the z-score was -0.936. Compound O=C(/C=C\Nc1ccccn1)c1ccccc1 has a z-score of 0.299. C=CCn1c(N)c(C(=O)Nc2cccc(C)c2)c2nc3ccccc3nc21 was tested, and the z-score was 0.172. CC(C)NS(=O)(=O)c1ccc(OCC(=O)Nc2cccc3ccccc23)cc1 gave a z-score of -0.13. For Cc1cc(NS(=O)(=O)c2ccc(Nc3nc(-c4ccc(O)cc4)cs3)cc2)no1, the z-score was -0.478. In the case of C=CCCC(=O)Nc1nc(C)c(-c2csc(Nc3cc(Cl)ccc3OC)n2)s1, the z-score is reported as -0.142. For CC(=O)N1CCC(Nc2ccc(C)cc2)CC1, the z-score was -0.368. With CN1C(=O)C2(OCC(COc3ccc(Cl)cc3)O2)c2ccccc21 (stereo unspecified) the z-score was 0.778. Work on CCC(=O)NCCCCCCNC(=O)CC yielded a z-score of -0.156. With O=C(CCCn1c(=S)[nH]c2ccccc2c1=O)NC1CCCCC1 the z-score was 0.0447. With CCN1CCN(CCCCSc2ccccc2)CC1 the z-score was -0.152. CCN(C(=O)c1cn(C)c(=O)c2cc(OC)c(OC)cc12)c1cc(OC)ccc1OC gave a z-score of -0.0628. CC(C)NS(=O)(=O)c1ccc(CCC(=O)Nc2cc(Cl)ccc2Oc2ccccc2)cc1 was tested, and the z-score was -0.183. CC(Oc1ccc(Cl)cc1Cl)C(=O)NCCN1CCOCC1 (stereo unspecified) gave a z-score of 0.00607. Cc1ccc(NC(=O)CN2C(=O)S/C(=C\C(=O)Nc3ccc(Cl)cc3)C2=O)cc1 was tested, and the z-score was -0.0557. Work on CC1CCCCC1NC(=O)CO/N=C/c1ccccc1OC(F)F (stereo unspecified) yielded a z-score of 0.053. With CC(CNC(=O)c1ccc(-c2ccccc2)cc1)CN(C)C (stereo unspecified) the z-score was 0.0655. With COc1ccc(-n2nnc3c(=O)n(Cc4cccc(C)c4)cnc32)cc1 the z-score was -0.0152. Compound Cc1ccc(Cl)cc1NC(=O)COC(=O)c1ccc(N2CCCC2)c([N+](=O)[O-])c1 has a z-score of 0.277. For CC1(C)CC(=O)C(C=Nc2ccccc2Sc2ccccc2)=C(O)C1, the z-score was -0.747. CC1CCN(C(=S)NC2CC3CCC2C3)CC1 (stereo unspecified) showed a z-score of -0.273. CCOc1ccccc1C1C(C(N)=O)=C(C)Nc2nc(-c3ccc(OC)cc3)nn21 (stereo unspecified) gave a z-score of -0.81. CCN(CC)S(=O)(=O)c1ccc(N2CCOCC2)c(NS(=O)(=O)c2ccc(C)cc2)c1 gave a z-score of -0.152. Cc1ccc(/C(N)=N/OC(=O)/C=C/c2ccccc2)cc1 showed a z-score of -0.596. Compound Cc1nn(C)c2ncc(C(=O)c3cc(F)ccc3O)cc12 has a z-score of -0.126. COC(=O)c1ccc2c(=O)n(CC3CCCO3)c(SCC(=O)Nc3ccccc3Cl)nc2c1 (stereo unspecified) showed a z-score of -0.289. In the case of Cc1ccc(CSc2nnc(C(F)(F)F)n2Cc2ccc(F)cc2)cc1, the z-score is reported as -0.365. In the case of O=C(C1CN(S(=O)(=O)c2ccccc2)CCN1S(=O)(=O)c1ccccc1)N1CCCCCC1 (stereo unspecified), the z-score is reported as -0.374. With Cc1cccc(C)c1-n1c(SCC(=O)N2CC(=O)Nc3ccccc32)nc2ccccc2c1=O the z-score was -0.109. In the case of COc1ccc(C(=O)OCC(=O)c2ccc(C3CCCCC3)cc2)cc1, the z-score is reported as 0.0448. With COc1ccccc1C(=O)NNC(=S)NC(=O)c1sc2ccccc2c1Cl the z-score was active: 4.01. Work on COc1ccccc1N1C(=O)CCC1(C#N)c1ccc(Br)cc1 (stereo unspecified) yielded a z-score of -0.14. In the case of Cc1nn(-c2nnc(NCc3ccccc3)nn2)c(C)c1Br, the z-score is reported as -0.428. With COc1ccccc1/C=N/NC(=O)C(NC(=O)c1ccccc1)=C(C)C the z-score was -0.268. O=C(c1ccc(Cl)cc1)c1ccccc1C(=O)N1CCOCC1 showed a z-score of 0.919. With CCOC(=O)CSc1nnc(SCCN2C(=O)c3ccccc3C2=O)s1 the z-score was -0.804. For C/C(=N\NC(=O)CN1CCN(Cc2ccc(C)cc2)CC1)c1ccncc1, the z-score was 0.0602. For COc1ccc(NC2CC(=O)N(c3ccccc3)C2=O)cc1 (stereo unspecified), the z-score was 0.00849. In the case of CCCC(=O)N=c1sc2cccc(F)c2n1C, the z-score is reported as -0.349. With CCCn1c(=NC(=O)c2c(-c3c(F)cccc3Cl)noc2C)c(C(=O)OCC)cc2c(=O)n3ccccc3nc21 the z-score was -0.723. CC1(C)Cc2c(sc3ncnc(NNC(=S)NCc4ccccc4)c23)CO1 showed a z-score of -0.123. For CCOC(=O)c1sc(NC(=O)CCN2C(=O)c3cccc([N+](=O)[O-])c3C2=O)c(C(=O)OCC)c1C, the z-score was -0.136. For Cc1ccc(C)c(NC(=O)CSc2nc(C)cc(C)c2C#N)c1, the z-score was 0.592. COc1cccc(-n2c(SCC(=O)NC3CCCC3)nnc2-c2ccco2)c1 showed a z-score of -0.193. Work on O=C1CC(c2ccco2)CC(O)=C1C=NCCN1CCN(C2CC(=O)N(c3ccccc3)C2=O)CC1 (stereo unspecified) yielded a z-score of -0.0278. Compound NC(=NCCc1c[nH]c2ccccc12)NS(=O)(=O)c1ccc2ccccc2c1 has a z-score of -0.0967. With C1=C(CCNc2ncnc3c2[nH]c2ccccc23)CCCC1 the z-score was -1.12. Compound N/C(=N/O)c1nc(N2CCCC2)nc(N(c2ccccc2)c2ccccc2)n1 has a z-score of -0.626. Work on Cc1ccccc1-n1c(=O)c2c(n3cnnc13)-c1ccccc1CC21CCCCC1 yielded a z-score of -0.582. Work on CCOC(=O)c1sc(NC(=S)NC(=O)C2CC2)cc1C yielded a z-score of -0.201. Cn1c(=O)c2c(nc(N3CCN(Cc4ccccc4)CC3)n2CC(=O)c2ccccc2)n(C)c1=O was tested, and the z-score was -0.583. Compound Nc1nnc(CC(=O)N/N=C/c2cccc(OCCOc3ccccc3)c2)s1 has a z-score of -0.152. Work on C=CCn1c(SCc2nc3scc(-c4ccccc4)c3c(=O)[nH]2)nnc1-c1ccccc1F yielded a z-score of -0.943. CN(c1ccccc1)S(=O)(=O)c1ccc(Cl)c(C(=O)NCCc2c[nH]c3ccccc23)c1 showed a z-score of -0.252. Compound Cn1c(N2CCOCC2)nc2c1c(=O)n(Cc1ccc(Cl)cc1)c(=O)n2C has a z-score of -0.42. With Cc1cc(C)nc(NC(=O)c2ccc([N+](=O)[O-])o2)n1 the z-score was -0.191. Work on CCN(C(=O)COC(=O)c1[nH]c(C)c(C(C)=O)c1C)C1CCS(=O)(=O)C1 (stereo unspecified) yielded a z-score of -0.237. CC(C)C[C@@H](N)c1nnc(SCC(=O)c2ccc(Cl)cc2)o1 showed a z-score of -0.138. Cc1cc(C)n(CC(O)Cn2ccc3ccccc32)n1 (stereo unspecified) was tested, and the z-score was -0.208. Work on Cn1c(=O)c2[nH]c(Nc3ccccc3)nc2n(C)c1=O yielded a z-score of 0.903. Compound COc1cc(C2C(C(=O)Nc3ccc(F)cc3)=C(C)Nc3nc(CCCO)nn32)cc(OC)c1OC (stereo unspecified) has a z-score of 0.418. N#CCCn1c(SCC(=O)Nc2ccc(N3CCOCC3)cc2)nc2ccccc21 showed a z-score of 2.51. With O=C(Nc1nnc(CC(c2ccccc2)c2ccccc2)s1)c1ccco1 the z-score was 0.156. For CN(CC(=O)Nc1ccc(C#N)cc1)CC(=O)Nc1ccc(N2CCOCC2)cc1, the z-score was -0.196. O=C(CNC(=O)c1ccccc1F)N/N=C/c1cc(Br)ccc1OC(=O)/C=C/c1ccco1 gave a z-score of -0.338. O=[N+]([O-])c1ccc(NCCCN2CCOCC2)c(Cl)c1 gave a z-score of -0.203. Compound CCCSC1=C(C#N)C(c2ccc(Cl)cc2Cl)CC(=O)N1 (stereo unspecified) has a z-score of -0.529. CCOCCCN(CCC#N)S(=O)(=O)c1ccc(S(=O)(=O)N2CCCC2)cc1 showed a z-score of -0.219. In the case of O=C(O)CC12C[C@H]3C[C@@H](C1)CC(n1ncc(N4CCN(c5ccccc5)CC4)c(Cl)c1=O)(C3)C2, the z-score is reported as -0.11. Work on COc1ccc(OC)c(/C=C/C(=O)OCC(=O)Nc2cccc(C(C)=O)c2)c1 yielded a z-score of 0.00375. Compound C=CCn1c(SCC(=O)NC2CCS(=O)(=O)C2)nc2sc(CC)cc2c1=O (stereo unspecified) has a z-score of 0.636. Cc1cc(-n2nc(C)cc2C)n2nc(C)c(-c3ccc(Cl)cc3)c2n1 gave a z-score of -0.849. With Cc1ccc(-c2nc3ccccc3[nH]2)cc1NC(=O)c1sc2cc(Cl)ccc2c1Cl the z-score was 0.107. Work on Cn1c(=O)c(C(=O)Nc2cccnc2)c(O)c2ccccc21 yielded a z-score of 1.29. With Cn1c(C(=O)NCCc2ccsc2)cc2c(=O)n(C)c3ccccc3c21 the z-score was -0.331. CCOc1ncnc2c1oc1nc(CC(C)C)c3c(c12)CC(C)(C)OC3 was tested, and the z-score was -0.509. For O=C1C2C3C=CC(C3=C(c3ccccc3)c3ccccc3)C2C(=O)N1Cc1ccccc1 (stereo unspecified), the z-score was -0.124. N#CCSc1nc2ccccc2c(=O)n1-c1ccccc1 showed a z-score of -0.383. For CCOC(=O)N1CCN(C(=S)NC)CC1, the z-score was -0.477. With CCc1nc(SCc2ccccn2)c2c(=O)n(C)c(=O)n(C)c2n1 the z-score was -1.4. For COc1ccc(-c2cc(-c3n[nH]c(=S)n3-c3cc(OC)ccc3OC)[nH]n2)cc1, the z-score was -0.241. Compound CC(C)C(c1nnnn1C1CCCC1)N1CCN(C(=O)c2ccco2)CC1 (stereo unspecified) has a z-score of 0.217. With O=C(Nc1nnc(SCc2ccc(Cl)cc2Cl)s1)C1COc2ccccc2O1 (stereo unspecified) the z-score was 0.208. For Clc1ccc(CN2C3=NCCCN3c3ccccc32)cc1, the z-score was 0.436. COc1cc(NS(=O)(=O)c2ccc(NC(=S)NC(=O)c3sc4ccccc4c3Cl)cc2)ncn1 showed a z-score of -0.55. Work on COc1ccc(/C=C(\C#N)C(=O)NC2CCS(=O)(=O)C2)cc1OC (stereo unspecified) yielded a z-score of 0.153. Compound Cc1ccc(NC(=O)COc2ccc(Br)cc2C)cc1 has a z-score of -0.0663. For CCC(=O)Nc1cc2c(cc1C(C)=O)OCCO2, the z-score was 0.158. Work on CCCNC(=O)C(C)n1c2ccccc2c2nc(=O)cc(C)n21 (stereo unspecified) yielded a z-score of -0.316. Cn1c(COc2ccccc2)nnc1SCCC(=O)Nc1ccccc1 was tested, and the z-score was -0.47. Work on COc1ccc(NCC(=O)N/N=C/C=C\c2ccccc2)cc1 yielded a z-score of -0.18. COc1ccc(NC(=O)C(NC(C)=O)C(=O)NCc2ccccc2)cc1 (stereo unspecified) was tested, and the z-score was 0.0301. Compound c1ccc(Cc2nnc3sc(-c4ccncc4)nn23)cc1 has a z-score of -0.409. With CCC(Sc1nc(C)cc(C)n1)C(=O)NC1=NN=C(c2ccc(C)cc2)CS1 (stereo unspecified) the z-score was -0.216. With CCCc1cc(=O)n2c([nH]c3ccccc32)c1C#N the z-score was -0.145. With O/N=C(\c1ccc2c(c1)OCCO2)C1CCCCC1 the z-score was 0.198. Cc1ccc(-c2nc(CS(=O)(=O)CC(=O)NC3CCCCC3C)c(C)o2)cc1 (stereo unspecified) gave a z-score of -0.262. In the case of O=C(c1ccc(N2C(=O)C3CC=C(Cl)CC3C2=O)cc1)N1CCCCC1 (stereo unspecified), the z-score is reported as -0.166. COc1ccc(OC)c(NC(=O)C2C3CCC(C3=C(C)C)C2C(=O)O)c1 (stereo unspecified) gave a z-score of 1.18. With Cc1ccc(-n2nc(C)c(C3(O)C(=O)N(C(C)C)c4ccccc43)c2N)cc1 (stereo unspecified) the z-score was -0.214. O=C(CSc1nc2ccccc2[nH]1)Nc1nc(-c2ccccc2)c(-c2ccccc2)o1 was tested, and the z-score was -0.201. Work on COC(=O)c1ccccc1NC(=O)C1CCCN(S(=O)(=O)c2ccc(F)cc2)C1 (stereo unspecified) yielded a z-score of -2.29. CC(=O)CCc1ccc2oc(C(=O)O)c(C)c2c1 gave a z-score of -0.497. CC(=O)NC1CC(C)(C)N(OC(C)=O)C(C)(C)C1 was tested, and the z-score was 0.144.
